Experimental data: the supplement of paper PMC3334620
Whole data set: some 33,000 sequences, median “E-score (-0.5 to 0.5)” near -0.021, cut for the highest 2% near 0.32. The list shows a part of the results.

target: T1, Zap1 (UniProt P47043); test: PBM E-score (8-mer binding enrichment) (E-score (-0.5 to 0.5)); higher = stronger / more preferred TF binding; most listed sequences are background and not binding sites; settings: protein concentration: 200 nM; construct: GST-full length
T1 sequence: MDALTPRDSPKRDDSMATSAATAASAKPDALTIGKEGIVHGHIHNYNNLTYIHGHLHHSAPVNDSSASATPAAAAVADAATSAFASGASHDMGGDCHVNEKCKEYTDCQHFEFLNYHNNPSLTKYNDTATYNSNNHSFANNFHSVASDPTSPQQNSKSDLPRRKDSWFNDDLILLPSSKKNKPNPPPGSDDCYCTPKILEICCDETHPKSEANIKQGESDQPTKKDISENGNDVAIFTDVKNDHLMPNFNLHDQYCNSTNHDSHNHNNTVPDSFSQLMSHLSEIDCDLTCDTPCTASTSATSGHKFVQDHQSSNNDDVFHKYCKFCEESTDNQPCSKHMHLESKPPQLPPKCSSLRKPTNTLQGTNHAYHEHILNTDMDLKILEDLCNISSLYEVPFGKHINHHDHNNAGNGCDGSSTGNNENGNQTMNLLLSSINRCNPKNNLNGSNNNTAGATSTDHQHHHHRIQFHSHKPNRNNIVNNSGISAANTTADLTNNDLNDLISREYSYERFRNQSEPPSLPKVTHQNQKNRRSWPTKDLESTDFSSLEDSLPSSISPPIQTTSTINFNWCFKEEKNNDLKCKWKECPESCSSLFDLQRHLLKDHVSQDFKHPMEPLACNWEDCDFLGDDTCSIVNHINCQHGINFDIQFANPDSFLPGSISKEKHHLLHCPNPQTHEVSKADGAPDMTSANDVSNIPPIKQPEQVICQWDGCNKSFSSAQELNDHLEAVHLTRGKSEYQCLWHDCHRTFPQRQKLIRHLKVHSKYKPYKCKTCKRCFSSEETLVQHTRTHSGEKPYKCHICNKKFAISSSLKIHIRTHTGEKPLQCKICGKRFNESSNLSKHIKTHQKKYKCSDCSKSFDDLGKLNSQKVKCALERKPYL
Outline: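 E-scores (a modified Wilcoxon-Mann-Whitney statistic) were assigned by the Universal PBM Analysis Suite to every ungapped eight-base word pooled with its reverse complement. The input came from universal all-10-mer Agilent arrays made double-stranded by primer extension and probed with GST-tagged yeast transcription factors at about 100-200 nM. Fluorescent anti-GST detected bound protein, and masliner normalised the scans.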

Row | Sequence | PBM E-score
1 | CCTTCCAC | -0.209
2 | CCTCTTCC | -0.127
3 | ACTTGTAC | -0.0795
4 | GACGAACC | 0.00791
5 | ATGGTAGC | 0.041
6 | AGGGGCTC | -0.134
7 | GCCCAGTA | -0.075
8 | TACCCTCA | 0.312
9 | AAGGTACC | 0.445
10 | GTTACAAA | 0.343
11 | CCAGCGCA | -0.348
12 | TAAGCGTA | -0.135
13 | CGCGGTTC | 0.181
14 | AGGAGGCG | -0.398
15 | GAGGCACA | -0.142
16 | CTATCGGC | -0.1
17 | AAGGCGAC | -0.264
18 | CGTTGTGC | -0.0934
19 | ACGGCAGT | -0.163
20 | CAGCTGAC | -0.0319
21 | CACACTCG | -0.221
22 | GCAGGAGC | -0.119

Row | Sequence | PBM E-score
23 | CACGTCGC | -0.229
24 | ATCCACAA | 0.0252
25 | ATTCCTTC | -0.0773
26 | GAGATATA | 0.0432
27 | ACGAATAC | 0.0278
28 | AGTTGTGA | 0.193
29 | AATACGGC | 0.191
30 | GGAAACAA | 0.0476
31 | ACACCATG | -0.0267
32 | CCAAACAA | 0.246
33 | ATTATTGC | 0.0913
34 | CCGCCCGC | -0.0378
35 | CCTTGTAA | 0.212
36 | AAGCCTCG | -0.154
37 | GATCAGAC | -0.114
38 | TAGATTAA | 0.247
39 | CGGCTGTC | -0.163
40 | ACACTAAT | 0.052
41 | CAATCAAA | 0.054
42 | AACAATCC | 0.16
43 | CCCCTGTA | 0.02
44 | AGACTCTA | -0.29

Row | Sequence | PBM E-score
45 | CCCGGCTC | -0.152
46 | CCTTCGAA | 0.0979
47 | CGAGCGTC | -0.0149
48 | CTTGTGGC | 0.0412
49 | ATTATAAT | 0.239
50 | GTACGTTA | 0.0459
51 | ACCTCCGT | 0.11
52 | CACTTAAC | 0.054
53 | ACAATCAG | 0.0621
54 | CACGGCAC | 0.00027
55 | GGGTCTTA | 0.168
56 | ACCAACTC | 0.115
57 | ACGCCAGT | -0.225
58 | CTTATACC | 0.106
59 | AGTCTAAA | 0.0205
60 | CCAGAAAC | 0.19
61 | GGGGCCCC | 0.262
62 | CTTCCGAC | -0.098
63 | GTTTCGTA | 0.226
64 | AAGTTGCA | -0.16
65 | AAGCGGCA | -0.0214
66 | GAAGCAAA | -0.0942

Row | Sequence | PBM E-score
67 | CGGGGCGA | -0.146
68 | AGTACGAT | 0.0149
69 | CAGTAGGC | -0.304
70 | AACCCAAG | 0.346
71 | GTTATATA | 0.359
72 | CCGCGCGA | 0.124
73 | TGTACGAA | 0.108
74 | ATCAACTC | -0.0779
75 | CTCGAGAC | 0.142
76 | CAAGCTGA | -0.0332
77 | CCCTGTGC | 0.0717
78 | GATGTTGA | -0.118
79 | CTTCCTTA | -0.0781
80 | GGGGTTTA | 0.126
81 | AAGGGGCA | -0.142
82 | ACCCTACT | 0.329
83 | CAAATCTC | -0.0633
84 | CTGATCTC | -0.106
85 | GCACAACC | 0.199
86 | ATTATGGA | 0.126
